Laboratory results: PubChem BioAssay AID588591 (National Center for Advancing Translational Sciences (NCATS), 2011)
Screen size: about 390,000 compounds; about 4,700 (1.2%) were called active. Inconclusive means that the source gave no clear call. Such entries were picked first, then a sample of the others. The call rests on the fitted dose curve; in most records, active means well fitted inhibition curve with a large enough effect; inconclusive means small, poorly fitted or top-dose-only effect, or another doubt; inactive means no such curve, though single readings can be large or run the other way. A potency beside an inconclusive call is a rough fit, not a confirmed value.
Potency means the concentration at half of the fitted maximal effect; tags describe the fitted curve by direction and shape.

What follows are molecules tested against DNA polymerase eta (Homo sapiens) (UniProt Q9Y253) (assay: qHTS for Inhibitors of Polymerase Eta). Conditions: recombinant Pol eta, fluorescent DNA replication assay; series mostly up to 114 µM.
Sequence of UniProt Q9Y253 (Q9Y253 whole entry, looked up): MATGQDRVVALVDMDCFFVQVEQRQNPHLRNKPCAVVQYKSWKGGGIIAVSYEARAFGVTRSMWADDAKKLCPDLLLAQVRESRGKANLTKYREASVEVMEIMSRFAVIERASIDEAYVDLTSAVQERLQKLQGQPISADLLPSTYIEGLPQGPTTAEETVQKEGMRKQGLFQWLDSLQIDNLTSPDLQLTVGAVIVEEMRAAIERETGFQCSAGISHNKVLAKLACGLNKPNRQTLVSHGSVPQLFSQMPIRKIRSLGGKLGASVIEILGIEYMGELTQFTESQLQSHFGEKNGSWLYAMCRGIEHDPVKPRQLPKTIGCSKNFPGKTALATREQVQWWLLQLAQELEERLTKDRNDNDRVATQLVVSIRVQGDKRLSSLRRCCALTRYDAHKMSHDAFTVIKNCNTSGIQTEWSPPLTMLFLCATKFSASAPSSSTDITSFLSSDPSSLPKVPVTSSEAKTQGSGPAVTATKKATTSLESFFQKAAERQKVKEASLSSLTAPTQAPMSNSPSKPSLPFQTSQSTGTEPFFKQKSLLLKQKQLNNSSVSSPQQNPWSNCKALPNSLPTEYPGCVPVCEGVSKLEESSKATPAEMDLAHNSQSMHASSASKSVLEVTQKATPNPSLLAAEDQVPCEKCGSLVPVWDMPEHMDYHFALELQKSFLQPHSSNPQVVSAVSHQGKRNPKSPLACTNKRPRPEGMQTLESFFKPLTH
Description: The Y-family of DNA polymerases, such as Pol eta, are specifically involved in DNA repair. Pol eta copies undamaged DNA with a lower fidelity than other DNA-directed polymerases. However, it accurately replicates UV-damaged DNA; when thymine dimers are present, this polymerase inserts the complementary nucleotides in the newly synthesized DNA, thereby bypassing the lesion and suppressing the mutagenic effect of UV-induced DNA damage. […] Thus, while pol eta's (and most likely iota's) normal function is to protect humans against the deleterious consequences of DNA damage, under certain conditions they can have deleterious effects on human health. As a consequence, we propose to utilize a high throughput replication assay to identify small molecule inhibitors of pol eta. In a collaboration between the National Institute of Child Health & Human Development (NICHD) and NIH Chemical Genomics Center, a high-throughput, fluorescent screen was developed to screen the NIH Molecular Libraries Small Molecule Repository (MLSMR). This screen is used to identify inhibitors of pol eta. NIH Chemical Genomics Center [NCGC] NIH Molecular Libraries Probe Centers Network [MLPCN] MLPCN Grant: MH090825 Assay Submitter (PI): Roger Woodgate, NICHD)
Three microliters of reagents (buffer in column 3 and 4 as negative control and 10 nM Pol eta in columns 1, 2, and 5-48) were dispensed into a 1,536-well black solid-bottomed plate. Compounds (23 nL) were transferred via Kalypsys pin tool equipped with 1536-pin array. The plates were then incubated for 15 min at room temperature, and 1 µL substrate (50 nM final concentration) was added to start the reaction and kinetically read twice at 0 min and 10 min on the Viewlux reader
For `Cc1ccc(C(c2c(O)nc3n(c2=O)CCS3)c2c(O)nc3n(c2=O)CCS3)cc1`, the Potency was “inactive”. `COc1cc(/C=C/C(=O)c2ccc3c(c2)OCCO3)cc(Br)c1OCC(=O)N(C)C` was tested, and the Potency was inconclusive: 35.5 µM [inhibitor, partial curve, poor fit]. For `CCCN(CCC)CCCNS(=O)(=O)c1ccc2c(c1)oc(=O)n2C`, the Potency was inconclusive: 31.6 µM [inhibitor, partial curve, poor fit]. For `CCOc1ccc(NC(=O)CSC2=Nc3ccccc3C3=NC(CC(=O)NCc4ccc5c(c4)OCO5)C(=O)N23)cc1` (centres undefined), the Potency was inconclusive: 89.1 µM [inhibitor, partial curve, poor fit]. For `Cc1ccc(CSCC(=O)NCc2cccnc2)cc1`, the Potency was inconclusive: 89.1 µM [inhibitor, partial curve, poor fit]. In the case of `O=C(Cc1cccc2ccccc12)Nc1ccccc1C(=O)O`, the Potency is reported as “inactive”. In the case of `Cc1nc(SCC(=O)c2ccccc2)c(C#N)c(-c2ccco2)c1C(=O)NCc1ccco1`, the Potency is reported as active: 20 µM. With `Cc1ccc(-c2cc(C(=O)N(Cc3ccccc3)Cc3ccco3)no2)cc1F` the Potency was “inactive”. For `CCC(COC)Oc1cc(NCc2ccccc2)c2ncn(C(C)C)c2c1` (centres undefined), the Potency was active: 79.4 µM. `Cc1ccc(Nc2nc(Oc3ccc(OCc4ccccc4)nn3)nc(N3CCOCC3)n2)cc1` was tested, and the Potency was inconclusive: 15.8 µM [inhibitor, partial curve, poor fit]. In the case of `COc1cccc(NC(=O)CN(c2ccc([N+](=O)[O-])cc2)S(=O)(=O)c2ccccc2)c1`, the Potency is reported as “inactive”. With `CCOC(=O)c1sc(NC(=O)c2ccc3nc[nH]c3c2)nc1C` the Potency was inconclusive: 39.8 µM [inhibitor, full curve]. `COc1cc(/C=C2\C(=O)N(c3ccc(S(N)(=O)=O)cc3)N=C2C)ccc1OC(=O)c1ccco1` was tested, and the Potency was “inactive”. In the case of `Cc1ccccc1S(=O)(=O)N1[C@@H](c2ccc(Cl)cc2)C(C(=O)O)=CC[C@H]1c1ccc(Cl)cc1`, the Potency is reported as inconclusive: 70.8 µM [inhibitor, partial curve, poor fit]. In the case of `CC1=NN(c2ccc(Cl)c(C(=O)O)c2)C(=O)/C1=C\c1ccc(-c2ccc(C(=O)O)cc2)o1`, the Potency is reported as active: 12.6 µM. For `O=C1C(c2ccccc2)=[N+]([O-])c2ccccc21`, the Potency was inconclusive: 89.1 µM [inhibitor, single point]. In the case of `COc1cccc(NS(=O)(=O)c2ccc3[nH]cc(C(=O)N(C)C4CCCCC4)c(=O)c3c2)c1`, the Potency is reported as active: 56.2 µM. In the case of `Cc1ccc2c(c1)C1OCCC1C1N2C(=O)C2C(C(=O)O)C3C=CC21O3` (centres undefined), the Potency is reported as inconclusive: 89.1 µM [inhibitor, single point]. `COC(=O)c1ccccc1NC(=O)/C=C/c1ccco1` was tested, and the Potency was active: 17.8 µM. `Cc1ccc(S(=O)(=O)N2CCCCC2)cc1NC(=O)CCc1nc2ccccc2c(=O)[nH]1` was tested, and the Potency was active: 28.2 µM. `CCSc1nnc(-c2ccc(C)cc2)c2ccccc12` was tested, and the Potency was inconclusive: 39.8 µM [inhibitor, partial curve, poor fit]. `COc1ccc2c(c1)c(=O)oc1c(C)c(OCC(=O)N3CCc4ccccc4C3)ccc12` was tested, and the Potency was inconclusive: 2.82 µM [inhibitor, full curve, poor fit]. With `COc1cccc(/C=N/Nc2nc(Nc3ccccc3)nc(-n3nc(C)cc3C)n2)c1O` the Potency was inconclusive: 14.1 µM [inhibitor, partial curve, poor fit]. `N=C1/C(=C\c2ccc(-c3cccc(C(=O)O)c3)o2)C(=O)N=C2SC=C(c3ccccc3)N12` was tested, and the Potency was active: 8.91 µM. For `Cc1ccc(S(=O)(=O)N2CCCC2)cc1C(=O)NCCOc1ccccc1`, the Potency was “inactive”. With `CCN(CC)S(=O)(=O)c1cc(C(=O)O)ccc1Cl` the Potency was “inactive”. In the case of `CC/C(C)=N/Nc1nc2c(c(=O)[nH]c(=O)n2C)n1Cc1ccccc1`, the Potency is reported as inconclusive: 79.4 µM [inhibitor, partial curve]. In the case of `Cc1cccn2c(=O)cc(COc3cccc(NC(=O)c4ccccc4F)c3)nc12`, the Potency is reported as “inactive”. With `Cc1cccc(NC(=S)NC(=O)/C=C/c2ccco2)c1` the Potency was active: 50.1 µM. For `O=S(c1ccccc1O)S(=O)c1ccccc1O` (centres undefined), the Potency was active: 22.4 µM. For `O=C(O)c1cn(-c2ccccc2)nc1C(=O)O`, the Potency was “inactive”. For `O=C(OCC(=O)N1CCc2ccccc21)c1ccc([N+](=O)[O-])o1`, the Potency was inconclusive: 50.1 µM [inhibitor, partial curve, poor fit]. With `O=C(COC(=O)c1ccc(O)cc1O)NC12CC3CC(CC(C3)C1)C2` the Potency was inconclusive: 89.1 µM [inhibitor, single point]. In the case of `O=C(CSc1ncnc2ccccc12)NCc1ccco1`, the Potency is reported as inconclusive: 25.1 µM [inhibitor, partial curve, poor fit]. In the case of `Cc1cnc(C(=O)Nc2ccc(C)c(S(=O)(=O)N3CCCCCC3)c2)cn1`, the Potency is reported as inconclusive: 12.6 µM [inhibitor, partial curve, poor fit]. In the case of `CCc1ccccc1NC(=O)Cn1nnc(C(=O)Nc2ccc(C)c(F)c2)c1N`, the Potency is reported as inconclusive: 112 µM [inhibitor, partial curve, poor fit]. With `Cc1cccc(NC(=O)Cn2cc(C(=O)c3ccco3)c3ccccc32)c1C` the Potency was active: 79.4 µM. With `CCOc1ccccc1NC(=O)COc1coc(CN2CCc3ccccc32)cc1=O` the Potency was inconclusive: 56.2 µM [inhibitor, partial curve, poor fit]. In the case of `COc1cccc(C2=NN(C(=O)CCCC(=O)O)C(c3cccs3)C2)c1` (centres undefined), the Potency is reported as inconclusive: 89.1 µM [inhibitor, partial curve, poor fit]. With `CC1(c2nnc(-c3ccccc3)o2)CC(c2cccc(Cl)c2)=NO1` (centres undefined) the Potency was inconclusive: 79.4 µM [inhibitor, partial curve, poor fit]. `Cc1cccc(NC(=O)CN2CCN(C(=O)c3cccc(-n4cnnn4)c3)CC2)c1C` was tested, and the Potency was “inactive”. In the case of `Cc1nn(Cc2ccccc2)c(Cl)c1C(=O)NCc1ccc(C)n1C`, the Potency is reported as inconclusive: 1.12 µM [inhibitor, full curve]. For `CN1C(=O)c2ccccc2NC(=O)[C@]12O[C@@H]2c1cccc(O)c1`, the Potency was active: 11.2 µM. With `CSc1ccccc1C(=O)N1CCN(S(=O)(=O)c2sc(C(=O)O)c(C)c2C(=O)O)CC1` the Potency was inconclusive: 14.1 µM [inhibitor, partial curve, poor fit].
